Measurements as given in PubChem BioAssay AID504706 (National Center for Advancing Translational Sciences (NCATS), 2011).
Among all 320,000 compounds or so, about 200 (0.062%) were called active. Inconclusive means that the source gave no clear call. Such entries were picked first, then a sample of the others. Calls come from the whole dose curve; as a rule, active = well fitted activation curve with a large enough effect; inconclusive = small, poorly fitted or top-dose-only effect; inactive = no such curve, though single readings can be large or run the other way. Potencies of inconclusive entries are left out as doubtful fits.
Potency is the fitted concentration of half-maximal effect; tags give direction and shape of the fitted curve.

Experiment: qHTS assay for re-activators of p53 using a Luc reporter; note: nearly all actives have a fitted effect of over 45% in size; for activity change, positive = activation: % of control where 0% means no effect
Settings: H1299 p53-A138V BP100-luciferase reporter, luminescence, 24 h; series mostly up to 92.2 µM; activity change, positive = activation: at the top concentration
How it was run: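 p53-null H1299 cells stably carrying temperature-sensitive p53-A138V and a BP100-luciferase reporter were pinned with compounds (4-point, 1:5 series) and held 24 hrs at 37 deg C. Luminescence was read 10 min after detection reagent.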
With CC(=O)Nc1sc(N/N=C/c2ccc(O)cc2)nc1-c1ccc(C)cc1 the Potency was inconclusive [activator, partial curve, poor fit]. For O=C(CSc1nc2c(c(=O)n1-c1ccccc1)SCC2)NCC1CCCO1 (stereo not given), the “activity change, positive = activation” value was inactive: -2.77%. For O=C(Nc1ccc(NC(=O)c2ccco2)nc1)c1cccnc1, the Potency was inconclusive [activator, full curve, poor fit]. With O=C(NCC(c1ccc(F)cc1)N1CCOCC1)c1ccc(OCc2ccccc2)cc1 (stereo not given) the Potency was inconclusive [activator, partial curve, poor fit]. With CC1=CC(C)C2C(=O)N(c3ccccc3)NC(=O)C2C1 (stereo not given) the “activity change, positive = activation” value was inactive: -1.2%. In the case of CN=C1c2cc3cc(OC)ccc3n2CCN1Cc1ccccc1, the “activity change, positive = activation” value was inactive: 1.42%. In the case of CCc1ccc2oc(-c3cc(N)ccc3Cl)nc2c1, the Potency was inconclusive [activator, partial curve, poor fit]. With COC(=O)c1sccc1NC(=O)Nc1ccc(C)c(C)c1 the Potency was inconclusive [activator, partial curve, poor fit]. For C/C(=N\Nc1ncc(Cl)cc1Cl)c1ccc(OC(F)F)cc1, the Potency was inconclusive [activator, full curve, poor fit]. In the case of CCN(CCn1cccn1)C(=O)C1CCC(=O)N(CC2CCCCC2)C1 (stereo not given), the Potency was inconclusive [activator, single point]. In the case of CCCS(=O)(=O)NCCc1cc2ccc(C)cc2[nH]c1=O, the Potency was inconclusive [activator, partial curve, poor fit]. For Oc1ccc(-c2csc(-c3ccccc3)n2)cc1O, the Potency was inconclusive [activator, partial curve, poor fit]. For Cc1ccc(SCCC(=O)NC(C)(C)C)cc1, the Potency was inconclusive [activator, partial curve, poor fit]. In the case of CCOC(=O)c1sc(Nc2nc3c(OC)cccc3s2)cc1C, the Potency was inconclusive [activator, partial curve, poor fit]. In the case of COc1ccc2[nH]c3c(NCc4ccco4)ncnc3c2c1, the Potency was inconclusive [activator, single point]. With Cc1cc(N2CCN(C(=O)c3ccco3)CC2)n2ncc(-c3ccccc3)c2n1 the “activity change, positive = activation” value was inactive: 11.9%. With COc1ccc(-c2cc(C(F)(F)F)nc(S(=O)(=O)CCC(=O)N3CCOCC3)n2)cc1 the Potency was inconclusive [activator, partial curve, poor fit]. In the case of Cc1ccc(-c2nc3ccccc3s2)cc1NC(=O)c1cc(-n2cnnc2)ccc1Cl, the “activity change, positive = activation” value was inactive: 25.7%. In the case of O=C(COC(=O)/C=C/c1ccc(OC(F)F)cc1)NC1CCCCCC1, the “activity change, positive = activation” value was inactive: 4.79%. In the case of Cc1cc(C(=O)COc2ccccc2[N+](=O)[O-])c(C)n1C1CC1, the Potency was inconclusive [activator, single point]. With Cc1ccc(-c2nc(Nc3ccccc3)n[nH]2)cc1 the Potency was inconclusive [activator, partial curve, poor fit]. For CC1CCCCC1NC(=O)COc1ccccc1C#N (stereo not given), the Potency was inconclusive [activator, partial curve, poor fit]. For Cc1cccc(Cc2c(C)nc3c(C(=O)NCc4ccco4)cnn3c2C)c1, the “activity change, positive = activation” value was inactive: -15.8%. In the case of O=c1c2ccccc2nc(COc2ccccc2)n1/N=C/c1c[nH]c2ccccc12, the “activity change, positive = activation” value was inactive: 4.46%. With Cc1ccc(S(=O)(=O)N2CCN(Cc3cc(=O)n4ccccc4n3)CC2)cc1C the Potency was inconclusive [activator, single point]. With Cc1noc(C)c1COC(=O)c1csc2c1CCC(C)C2 (stereo not given) the Potency was inconclusive [activator, single point]. With O=c1c2cnn(-c3ccccc3)c2ncn1Cc1cccc(Cl)c1 the Potency was inconclusive [activator, full curve, poor fit]. In the case of Cn1nnnc1SCCNC/C=C/c1ccccc1, the Potency was inconclusive [activator, partial curve, poor fit]. In the case of CCOC(=O)c1cc2cc3ccccc3cc2[nH]1, the Potency was inconclusive [activator, full curve, poor fit]. With COc1ccc2[nH]cc(CCNC(=S)NC3CCCC3)c2c1 the “activity change, positive = activation” value was inactive: -2.16%. For COc1ccccc1CN(C)C(=O)CSCC(=O)Nc1ccccc1F, the “activity change, positive = activation” value was inactive: -7.56%. In the case of COCCNC(=S)N(CCc1c(C)[nH]c2ccc(OC)cc12)Cc1cccnc1, the “activity change, positive = activation” value was inactive: 0.923%. For O=S(=O)(c1cccs1)N1CCCc2cccc(O)c21, the Potency was inconclusive [activator, partial curve, poor fit]. For Cc1cccc(C(=O)N/N=C/c2ccccn2)c1, the Potency was inconclusive [activator, partial curve, poor fit]. In the case of Cc1cc(C(=O)CSc2nc3ccccc3c(=O)[nH]2)c(C)n1C, the Potency was inconclusive [activator, partial curve, poor fit]. For CCOC(=O)CCSc1nc(C)c2cc(C)ccc2n1, the Potency was inconclusive [activator, partial curve, poor fit]. In the case of Cn1cc(/C=C/c2cc[n+](C)cc2)c2cc(Cl)ccc21, the “activity change, positive = activation” value was inactive: -2.58%. For Cc1ccc(C(=O)CCS(=O)(=O)c2ccc(Br)cc2)cc1, the “activity change, positive = activation” value was inactive: -2.04%. With CC(Oc1ccc(F)cc1)C(=O)Nc1cc(S(=O)(=O)N2CCOCC2)ccc1N1CCCCC1 (stereo not given) the “activity change, positive = activation” value was inactive: -1.19%. For Cc1ccc(-c2cc(-c3ccccc3C)[nH]n2)c(O)c1, the Potency was inconclusive [activator, partial curve, poor fit]. For CCn1c2ccccc2c2cc(NC(=O)C(C)Oc3ccc(OC)cc3)ccc21 (stereo not given), the “activity change, positive = activation” value was inactive: 2.81%. With CC(=O)Nc1ccc(SCc2ncc(-c3ccccc3)o2)cc1 the Potency was inconclusive [activator, partial curve, poor fit]. In the case of CC1N=C2c3ccccc3N=C(SCc3cc(=O)n4cc(Cl)ccc4n3)N2C1=O (stereo not given), the “activity change, positive = activation” value was inactive: -8.59%. With O=C(NCCC1=CCCCC1)c1ccc(CN2CCOCC2)cc1 the Potency was inconclusive [activator, full curve, poor fit]. In the case of Cc1nnc(SCC(=O)Nc2ccc(F)cc2F)n(N)c1=O, the Potency was inconclusive [activator, single point].
